Read-outs that look alike come from different tables or passages of the source.
System: L1 wild-type C. elegans (N2)
Test: microbe, parasite or virus in culture
Conditions: Caenorhabditis elegans; for viability at 500 µM: read-out: C. elegans Wild type development/viability, Dose 500 µM; for viability at 1000 µM: read-out: C. elegans Wild type development/viability, Dose 1000 µM
[1] = read-out: C. elegans Wt viability LC50
[2] = read-out: C. elegans Wt viability log10 LC50 (converted)
[3] = read-out: C. elegans (Wild type) Development & Viability Assay LC50
[4] = read-out: C. elegans Wild type development/viability, Dose 1 µM
[5] = read-out: C. elegans Wild type development/viability, Dose 2 µM
[6] = read-out: C. elegans Wild type development/viability, Dose 3.9 µM
[7] = read-out: C. elegans Wild type development/viability, Dose 15.6 µM
[8] = read-out: C. elegans Wild type development/viability, Dose 31.3 µM
[9] = read-out: C. elegans Wild type development/viability, Dose 62.5 µM
[10] = read-out: C. elegans Wild type development/viability, Dose 125 µM
[11] = read-out: C. elegans Wild type development/viability, Dose 250 µM
[12] = read-out: C. elegans Wild type development/viability

## CCCSc1ccc2nc(NC(=O)OC)[nH]c2c1 [Albendazole]
[1]
  LC50: 52.6 µM
[2]
  LC50: 52.6 µM

## Cc1nc2ccccc2n1Cc1ccc(C(C)(C)C)cc1 [Compound 5521938]
[3]
  LC50: 754 µM
[2]
  LC50: 753 µM

## Brc1ccc(Cn2cnc3ccccc32)cc1 [Compound 5542661]
[3]
  LC50: 44.6 µM
[2]
  LC50: 44.7 µM

## Cc1nc2ccccc2n1CCOc1ccccc1 [Compound 5550112]
[3]
  LC50: > 1000 µM
[4]
  viability at 1 µM: 98.4%
[5]
  viability at 2 µM: 99.5%
[6]
  viability at 3.9 µM: 97.2%
[7]
  viability at 15.6 µM: 100%
[8]
  viability at 31.3 µM: 94.7%
[9]
  viability at 62.5 µM: 97.5%
[10]
  viability at 125 µM: 100%
[11]
  viability at 250 µM: 90.5%
  viability at 500 µM: 100%
  viability at 1000 µM: 93.3%
[1]
  LC50: > 500 µM
[2]
  LC50: > 500 µM

## Cc1nc2ccccc2n1CCOc1ccccc1Cl [Compound 5561642]
[3]
  LC50: 544 µM
[4]
  viability at 1 µM: 99.4%
[5]
  viability at 2 µM: 95.3%
[6]
  viability at 3.9 µM: 99.7%
[7]
  viability at 15.6 µM: 97.1%
[8]
  viability at 31.3 µM: 92.3%
[9]
  viability at 62.5 µM: 100%
[10]
  viability at 125 µM: 100%
[11]
  viability at 250 µM: 79.9%
  viability at 500 µM: 30%
  viability at 1000 µM: 46.4%
[2]
  LC50: 545 µM

## Cc1nc2ccccc2n1Cc1ccc(Br)cc1 [Compound 5567167]
[3]
  LC50: 18.9 µM
[2]
  LC50: 18.9 µM

## Clc1ccc(Cn2cnc3ccccc32)cc1Cl [Compound 5571325]
[3]
  LC50: 66.5 µM
[4]
  viability at 1 µM: 98.5%
[5]
  viability at 2 µM: 100%
[6]
  viability at 3.9 µM: 94.1%
[7]
  viability at 15.6 µM: 100%
[8]
  viability at 31.3 µM: 92.2%
[9]
  viability at 62.5 µM: 37.5%
[10]
  viability at 125 µM: 2.1%
[2]
  LC50: 66.5 µM

## Cc1ccc(Cn2c(C)nc3ccccc32)cc1 [Compound 5651984]
[3]
  LC50: 119 µM
[2]
  LC50: 119 µM

## Nc1nc2ccccc2n1Cc1ccc(Cl)cc1 [Compound 5652765]
[3]
  LC50: 88.2 µM
[4]
  viability at 1 µM: 100%
[5]
  viability at 2 µM: 99.7%
[6]
  viability at 3.9 µM: 98.8%
[7]
  viability at 15.6 µM: 99.4%
[8]
  viability at 31.3 µM: 81.3%
[9]
  viability at 62.5 µM: 85.7%
[10]
  viability at 125 µM: 16.2%
[11]
  viability at 250 µM: 5.6%
  viability at 500 µM: 5.1%
[2]
  LC50: 88.1 µM

## Cc1nc2ccccc2n1Cc1ccc(Cl)c(Cl)c1 [Compound 5655567]
[3]
  LC50: 82.7 µM
[4]
  viability at 1 µM: 95.1%
[5]
  viability at 2 µM: 94.9%
[6]
  viability at 3.9 µM: 94.2%
[7]
  viability at 15.6 µM: 100%
[8]
  viability at 31.3 µM: 100%
[9]
  viability at 62.5 µM: 91.2%
[10]
  viability at 125 µM: 3%
[11]
  viability at 250 µM: 9.3%
[2]
  LC50: 82.6 µM

## c1ccc2[nH]c(CSc3nc4ccccc4o3)nc2c1 [Compound 5668941]
[3]
  LC50: 144 µM
[2]
  LC50: 144 µM

## Cc1ccc(OCCn2cnc3ccccc32)cc1 [Compound 5671538]
[3]
  LC50: > 1000 µM
[7]
  viability at 15.6 µM: 100%
[8]
  viability at 31.3 µM: 100%
[9]
  viability at 62.5 µM: 100%
[10]
  viability at 125 µM: 100%
[11]
  viability at 250 µM: 100%
  viability at 500 µM: 100%
  viability at 1000 µM: 100%
[1]
  LC50: > 500 µM
[2]
  LC50: > 500 µM

## Nc1nc2ccccc2n1CCOc1ccc(Br)cc1 [Compound 5842535]
[3]
  LC50: 39.7 µM
[4]
  viability at 1 µM: 98.7%
[5]
  viability at 2 µM: 100%
[6]
  viability at 3.9 µM: 100%
[7]
  viability at 15.6 µM: 100%
[8]
  viability at 31.3 µM: 84.1%
[9]
  viability at 62.5 µM: 3.9%
[10]
  viability at 125 µM: 9.2%
[2]
  LC50: 39.7 µM

## Cc1ccc(C(C)C)c(OCC(O)Cn2cnc3ccccc32)c1 (centres unmarked) [Compound 6093301]
[3]
  LC50: 365 µM
[12]
  viability at 125 µM: 97.2%
[4]
  viability at 1 µM: 100%
[5]
  viability at 2 µM: 99.3%
[6]
  viability at 3.9 µM: 99.4%
[7]
  viability at 15.6 µM: 100%
[8]
  viability at 31.3 µM: 100%
[9]
  viability at 62.5 µM: 100%
[11]
  viability at 250 µM: 94.7%
  viability at 500 µM: 48.5%
  viability at 1000 µM: 41.9%
[2]
  LC50: 366 µM

## Cc1cccc(OCCn2c(C)nc3ccccc32)c1 [Compound 6285199]
[3]
  LC50: > 1000 µM
[12]
  viability at 1 µM: 99.9%
  viability at 2 µM: 91.6%
  viability at 3.9 µM: 97.6%
  viability at 15.6 µM: 95.5%
  viability at 31.3 µM: 93.8%
  viability at 62.5 µM: 97.6%
  viability at 250 µM: 64.8%
[10]
  viability at 125 µM: 100%
[1]
  LC50: > 500 µM
[2]
  LC50: > 500 µM

## Cc1ccc(Cn2c(C(C)C)nc3ccccc32)cc1 [Compound 6586153]
[3]
  LC50: 397 µM
[2]
  LC50: 396 µM

## Cc1nc2ccccc2n1Cc1ccccc1Cl [Compound 6707368]
[3]
  LC50: 140 µM
[2]
  LC50: 140 µM

## Clc1ccc(Cn2cnc3ccccc32)c(Cl)c1 [Compound 6750659]
[3]
  LC50: 42.4 µM
[7]
  viability at 15.6 µM: 100%
[8]
  viability at 31.3 µM: 89.8%
[9]
  viability at 62.5 µM: 5.8%
[10]
  viability at 125 µM: 9.3%
[11]
  viability at 250 µM: 0%
[2]
  LC50: 42.5 µM

## C=CCn1c(-c2ccc(N(C)C)cc2)nc2ccccc21 [Compound 6873298]
[3]
  LC50: 37.7 µM
[2]
  LC50: 37.7 µM

## CCCn1c(COc2ccc(C)cc2)nc2ccccc21 [Compound 6944471]
[3]
  LC50: > 1000 µM
[7]
  viability at 15.6 µM: 98.6%
[8]
  viability at 31.3 µM: 100%
[9]
  viability at 62.5 µM: 100%
[10]
  viability at 125 µM: 100%
[11]
  viability at 250 µM: 100%
  viability at 500 µM: 85.8%
  viability at 1000 µM: 91.4%
[1]
  LC50: > 500 µM
[2]
  LC50: > 500 µM

## Cc1ccc(CSCc2nc3ccccc3[nH]2)cc1 [Compound 7121781]
[3]
  LC50: 444 µM
[7]
  viability at 15.6 µM: 95.9%
[8]
  viability at 31.3 µM: 80.9%
[9]
  viability at 62.5 µM: 99.7%
[10]
  viability at 125 µM: 98.6%
[11]
  viability at 250 µM: 96.2%
  viability at 500 µM: 34.8%
  viability at 1000 µM: 15%
[2]
  LC50: 444 µM

## CCn1c(/C=C/c2ccc(F)cc2)nc2ccccc21 [Compound 7147614]
[3]
  LC50: 96.4 µM
[2]
  LC50: 96.4 µM

## COc1ccccc1/C=C/c1nc2ccccc2[nH]1 [Compound 7148894]
[3]
  LC50: 176 µM
[2]
  LC50: 176 µM

## Clc1ccc(OCCn2cnc3ccccc32)c(Cl)c1 [Compound 7221649]
[3]
  LC50: 35 µM
[4]
  viability at 1 µM: 99.9%
[5]
  viability at 2 µM: 99.2%
[6]
  viability at 3.9 µM: 97.4%
[7]
  viability at 15.6 µM: 96.9%
[8]
  viability at 31.3 µM: 84.2%
[9]
  viability at 62.5 µM: 3.1%
[10]
  viability at 125 µM: 3.9%
[2]
  LC50: 35 µM

## Nc1nc2ccccc2n1Cc1ccc(Br)cc1 [Compound 7313068]
[3]
  LC50: 62.7 µM
[2]
  LC50: 62.7 µM

## Cc1nc2ccccc2n1Cc1ccc(C(C)C)cc1 [Compound 7353551]
[3]
  LC50: 116 µM
[2]
  LC50: 116 µM

## CCCOc1ccc(Cn2cnc3ccccc32)cc1 [Compound 7355741]
[3]
  LC50: 72 µM
[7]
  viability at 15.6 µM: 99.8%
[8]
  viability at 31.3 µM: 100%
[9]
  viability at 62.5 µM: 82.7%
[10]
  viability at 125 µM: 5.7%
[11]
  viability at 250 µM: 0%
[2]
  LC50: 71.9 µM

## Cc1nc2ccccc2n1Cc1ccc(F)cc1 [Compound 7360886]
[3]
  LC50: 239 µM
[2]
  LC50: 239 µM
